Measured values published in the supplement of paper PMC12217912.
The other results are listed elsewhere or left out. The full chains were built here from the parent and the listed change. Values near 0.05 are background.

B1: TEV protease; numbered along this chain (parent)
chain: MGESLFKGPRDYNPISSSICHLTNESDGHTTSLYGIGFGPFIITNKHLFRRNNGTLVVQSLHGVFKVKDTTTLQQHLVDGRDMIIIRMPKDFPPFPQKLKFREPQREERICLVTTNFQTKSMSSMVSDTSCTFPSGDGIFWKHWIQTKDGQCGSPLVSTRDGFIVGIHSASNFTNTNNYFTSVPKNFMELLTNQEAQQWVSGWRLNADSVLWGGHKVFMVKPEEPFQPVKEATQL

Variants of: B1
Experiment: raw area under fraction-flipped curve 0-4 h after induction (AUC4h, not background-subtracted), DNA-recorder readout of cleavage of the substrate (dimensionless); higher = more cleavage of the substrate by the protease variant
Conditions: temperature: 34 °C; time window: 0-4 h after rhamnose induction
Method: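 In vivo DNA recorder in E. coli TOP10(DE3) ΔrhaA at 34 °C. Each TEVp single-site mutant (parent TEVp 0) is paired with a single-site variant of the 7-mer TEVs (canonical ENLYFQ|S). The substrate sits between flexible linkers in a Bxb1-sfGFP-TEVs-SsrA fusion, so cleavage stabilises Bxb1 and speeds flipping of a recombination array, read by NGS. The value is the raw area under the fraction-flipped curve over 0-4 h after rhamnose induction (AUC4h), with ≥20 reads per time point. It is not background-subtracted; inactive controls average about 0.047.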
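Also: Bxb1 expression induced with 0.2% (w/v) L-rhamnose at OD600 near 0.5, cultures sampled hourly, flipped fraction per protease–substrate barcode pair counted by paired-end Illumina sequencing.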

Variant	area with substrate ENAYFQS	area with substrate ENDYFQS	area with substrate ENEYFQS	area with substrate ENFYFQS	area with substrate ENHYFQS	area with substrate ENIYFQS	area with substrate ENKYFQS	area with substrate ENNYFQS	area with substrate ENQYFQS	area with substrate ENTYFQS	area with substrate ENVYFQS	area with substrate ENCYFQS	area with substrate ENPYFQS	area with substrate ENRYFQS	area with substrate ENSYFQS	area with substrate ENGYFQS	area with substrate ENMYFQS	area with substrate ENWYFQS	area with substrate ENYYFQS
E224G	0.0402	0.0635	0.0779	0.0455	0.064	0.0965	0.06	0.0657	0.0844	0.0632	0.0969	–	–	–	–	–	–	–	–
P225E	0.0535	–	0.054	0.0606	–	–	0.0521	–	0.0551	0.0592	0.108	0.0569	0.0638	0.0506	0.0714	–	–	–	–
P225G	0.0833	0.0604	0.0698	0.0632	–	–	0.0628	–	0.0692	–	0.0777	0.062	–	–	0.0745	0.0733	0.0839	0.0701	0.0559
P225H	0.0769	0.0721	0.0603	–	0.0392	0.0932	0.0489	0.0607	0.0513	–	–	–	–	–	0.0641	0.06	0.0664	–	0.089
P225M	0.0619	0.0594	0.0178	–	0.0454	0.104	–	0.0618	–	0.0625	0.0685	0.083	0.0646	0.0662	0.0646	0.0669	0.0905	–	–
P225N	0.0718	0.0566	0.0663	0.0523	0.0605	0.133	0.0495	–	0.071	0.0711	–	0.0645	0.0511	0.0583	0.0518	0.0596	0.0432	0.0649	0.0514
F226R	0.0635	0.0667	0.0581	0.064	0.0597	0.118	0.0591	0.049	0.0541	–	0.0708	–	0.0749	0.054	0.0519	0.0645	–	–	–
Q227C	0.0481	0.0554	0.0618	0.0633	–	0.113	–	–	0.0601	0.054	0.0717	–	0.0709	0.0601	0.0492	0.038	0.0815	–	–
P228K	0.0337	0.0643	–	–	–	0.0963	0.0446	0.056	0.061	0.0561	0.0946	0.0684	0.0674	–	0.052	0.0805	–	–	–
P228L	0.0469	0.0466	0.0758	0.0431	–	0.117	–	0.0668	0.0524	–	0.0633	–	–	–	0.051	–	–	0.0525	–
P228M	0.0559	0.0045	0.0586	0.0615	0.0617	0.113	–	0.061	–	–	0.086	0.0763	–	0.0571	–	–	–	–	–
V229A	0.0682	–	0.0561	–	–	–	0.0604	–	0.0657	–	–	0.0651	–	0.0645	0.055	–	–	–	–
V229S	0.0975	–	–	–	–	0.109	–	–	0.0693	0.064	0.0871	0.07	0.0541	–	–	0.0748	–	–	–
K230Q	0.0813	0.0666	–	0.0723	–	–	–	–	0.0648	0.0532	0.0665	0.0758	–	0.073	0.0669	0.0497	0.0767	0.0011	0.0899
K230Y	0.0467	–	–	0.0527	–	–	0.0767	0.0618	0.0567	–	0.0763	0.0584	0.0699	0.0538	0.0536	–	0.068	–	–
E231F	0.0561	0.0676	0.0629	–	0.0642	–	0.0669	–	–	–	0.098	0.0652	0.0631	0.0548	0.0616	–	–	0.0522	–
T233L	0.0651	0.0498	0.0426	0.0518	0.0487	–	–	0.0626	0.0693	–	–	0.0616	0.0676	0.0534	0.0503	–	0.084	0.033	0.065
Q234Y	0.0652	0.0588	0.0704	0.0251	0.0593	0.11	0.0654	0.0684	0.0527	0.0896	–	0.0691	–	0.0572	0.0677	0.0674	–	–	0.0665
L235K	0.0579	0.0622	–	–	–	–	–	–	0.0593	–	–	0.0757	0.0695	0.0608	0.0435	–	0.118	–	–
G2R	–	0.0318	0.0614	–	–	0.144	–	–	0.0635	0.0539	0.0698	0.076	–	–	–	–	–	–	–
E3L	–	0.0642	0.0661	0.0331	–	–	0.0679	0.0693	0.0497	0.069	–	0.0606	0.0734	0.0783	0.0944	–	–	–	–
L5C	–	0.0422	0.0557	–	–	–	0.0605	0.0676	–	–	0.0761	0.0911	–	0.0489	–	0.0451	0.003	–	–
L5K	–	0.0515	0.0575	0.0586	–	–	–	0.0584	0.0362	0.0679	0.0837	0.0772	–	–	0.0673	0.0462	–	0.0505	0.0685
F6I	–	0.0608	0.0546	0.0761	–	–	0.0732	–	0.0593	–	0.0862	0.0689	–	–	0.11	0.0891	–	0.0692	–
S17I	–	0.0578	0.0596	–	0.049	0.124	0.0691	0.0617	0.0579	–	0.0739	0.0687	0.0584	–	0.0662	0.059	–	–	0.0768
I19A	–	0.0366	0.0589	–	0.047	0.0774	0.0581	0.0481	0.0605	–	0.046	0.0681	–	–	–	–	–	0.0554	–
T23D	–	0.0518	0.0526	0.0649	0.0611	–	0.0569	0.0502	0.0502	0.05	0.0723	0.0467	0.0626	0.0475	–	0.0624	–	0.0309	0.0542
G37H	–	0.0579	0.0549	0.053	–	0.0915	0.0655	0.0555	0.0544	0.0589	0.0603	0.0456	–	0.0558	0.079	0.0572	–	0.0709	–
G37Y	–	0.0474	0.051	0.0735	0.0478	0.0722	–	0.0466	–	–	–	0.0521	–	0.0592	0.0595	0.0524	–	–	0.0555
